# Laboratory results as given in the supplement of paper PMC10126150.
# Sequences with one replicate were seen in a single cluster, so their values are uncertain.
# Test system: ATP
# Assay: switch fluorescence ratio, 500 uM ATP over buffer (Cy3 cluster intensity, sum of 5 cycles each) (fold (ratio)); higher = stronger signal-on switching upon ATP binding; sequences stand for … in TCGTCGGCAGCGTCAGATGTGTATAAGAGACAGTTTTTTTTTTTTTTTTTTTTTTTTT…TC
# Conditions: aptamer strand: ATP DNA aptamer (quencher-CACCTGGGGGAGTATTGCGGAGGAAGG + anchor), 100 nM annealed; ATP concentration: 500 uM; one replicate
# In short: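 Exposure to 500 uM ATP lasted 15 min at 22 °C before imaging, and a selection-buffer image was taken beforehand, for Cy3-labelled switching-strand clusters on a modified Illumina MiSeq flow-cell annealed to 100 nM quencher-labelled ATP aptamer. Five buffer/ATP cycles were run with NaOH stripping and re-annealing between them. The fluorescence ratio per cluster is summed target-cycle over summed buffer-cycle Cy3 intensity, averaged per switch-domain sequence. Clusters outside 100-1000 RFU were excluded.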
row,Sequence,switch fluorescence ratio
1,CCGCTGCCCC,3.34
2,CCGCTTAACA,2.09
3,CCGCTTGGGC,2.85
4,CCGCTTTAAA,1.66
5,CCGGAAGTTG,1.02
6,CCGGAATGCG,2.11
7,CCGGACCCAG,1.3
8,CCGGAGTCGG,1.86
9,CCGGCCTCAT,1.32
10,CCGGCGAGTT,1.08
11,CCGGGACTAT,1.14
12,CCGGGAGGG,1.61
13,CCGGGAGGGT,1.04
14,CCGGGCAGTT,1.7
15,CCGGGCCGGA,0.98
16,CCGGGCCGGG,0.958
17,CCGGGCGGTA,1.15
18,CCGGGGAACT,1.1
19,CCGGGGCGCG,1.02
20,CCGGGGGTGT,1.12
21,CCGGGTGCAG,1.11
22,CCGGGTTTAT,1.05
23,CCGGTCCCCA,1.24
24,CCGGTGATGT,1.02
25,CCGGTGCAGA,2.13
26,CCGGTTCCT,1.08

row,Sequence,switch fluorescence ratio
1,CCGGTTCGGA,1.03
2,CCGGTTTCAT,0.978
3,CCGTAAAAC,2.76
4,CCGTAAGGCG,1.02
5,CCGTAAGTGG,1.1
6,CCGTAATGCC,1.57
7,CCGTACATAT,2.37
8,CCGTAGAGCA,1.55
9,CCGTAGGATT,1.11
10,CCGTAGGCGT,1.12
11,CCGTATCGGA,0.995
12,CCGTCGACGC,1.16
13,CCGTCGCTAA,5.03
14,CCGTCTACGA,1.23
15,CCGTGAAAAT,0.992
16,CCGTGACGTG,1.05
17,CCGTGCTTGA,1.01
18,CCGTGGAAGT,1.02
19,CCGTGTAG,1.05
20,CCGTGTCTA,1.05
21,CCGTGTGGCA,1.02
22,CCGTTATAAA,1.14
23,CCGTTATTGA,1.06
24,CCGTTGATCG,1.02
25,CCGTTTCATG,0.99
26,CCGTTTCTAC,2.58

row,Sequence,switch fluorescence ratio
1,CCGTTTTCGA,0.973
2,CCTAAAATT,1.03
3,CCTAAAGACA,1.03
4,CCTAAATAGG,1
5,CCTAACCTT,1.66
6,CCTAAGCAGT,4.19
7,CCTAATTGGG,0.98
8,CCTACATGAG,1.07
9,CCTACGACGG,2
10,CCTACGTGTA,4.61
11,CCTACTGTGG,1.02
12,CCTAGATGGT,0.971
13,CCTAGCGAGG,1.09
14,CCTAGCTAAT,2.08
15,CCTAGGCATT,3.75
16,CCTAGGGGA,1.04
17,CCTAGGTCTG,0.997
18,CCTAGTTCGT,0.979
19,CCTATACGAA,1.09
20,CCTATCCTAA,0.981
21,CCTATGGAGT,1.01
22,CCTATGGCAT,1.65
23,CCTATTTACA,1.02
24,CCTATTTTTA,0.971
25,CCTCATTCCG,1.23
26,CCTCGAAGCG,1.15

row,Sequence,switch fluorescence ratio
1,CCTCGACGCG,1.2
2,CCTCGAGGCG,1.04
3,CCTCGAGGTC,1.04
4,CCTCGATAGT,1.28
5,CCTCGATCTA,1.09
6,CCTCGGACG,1.17
7,CCTCGGACGT,1.15
8,CCTCGGTGCA,1.62
9,CCTCTAGGCA,1.96
10,CCTCTGCTTC,2.44
11,CCTGAATATA,1.05
12,CCTGACCTCT,1.08
13,CCTGAGTATG,1.04
14,CCTGATGCTA,1.18
15,CCTGATTGGT,0.953
16,CCTGCAAA,5.3
17,CCTGGCTTAT,1.18
18,CCTGGGAATA,1.09
19,CCTGGGACGG,1.01
20,CCTGGTATGT,0.951
21,CCTGGTCCAT,0.938
22,CCTGGTCGCA,1.06
23,CCTGGTGGGT,1.06
24,CCTGTAGGAA,1.04
25,CCTGTATCT,0.946
26,CCTGTCCACG,1.02

row,Sequence,switch fluorescence ratio
1,CCTGTGAGGG,1.03
2,CCTGTGCTG,1.13
3,CCTGTGGATA,1.04
4,CCTTAAGATG,1.16
5,CCTTAATTT,1.02
6,CCTTACCGCG,1.32
7,CCTTAGCTCG,0.962
8,CCTTAGGGGA,1.57
9,CCTTAGTATA,1.1
10,CCTTCCTAAC,4.49
11,CCTTCGTGTT,3.26
12,CCTTCTTACT,1.27
13,CCTTGAACGC,1.4
14,CCTTGTAGG,0.965
15,CCTTGTTGAG,1.07
16,CCTTGTTTTG,0.95
17,CCTTTAAGGT,1.01
18,CCTTTAGAA,0.999
19,CCTTTGGGCC,0.948
20,CCTTTGTCGG,1.08
21,CCTTTTCACG,1.04
22,CGAAAAATTC,2.08
23,CGAAAAGGGT,0.965
24,CGAAACACGG,1.06
25,CGAAACTAAA,0.965
26,CGAAATAGTC,1.55

row,Sequence,switch fluorescence ratio
1,CGAAATCTTT,1.03
2,CGAAATGAGC,1.03
3,CGAAATTAGG,1.02
4,CGAACAATT,1
5,CGAACAGCAC,1.6
6,CGAACATGAG,1
7,CGAACCAGCC,1.73
8,CGAACCATTA,1.04
9,CGAACCCCGG,1.51
10,CGAACCGTGG,1
11,CGAACGGGTG,1.08
12,CGAACTAGTG,1.01
13,CGAACTGGGA,0.977
14,CGAAGATGCC,1.01
15,CGAAGCAGTT,2.49
16,CGAAGGACTC,1.17
17,CGAAGGGGAG,0.984
18,CGAAGTGAGT,1.05
19,CGAATCCTCA,0.998
20,CGAATGCCCT,1
21,CGAATGGAGA,1.01
22,CGAATTATAG,1.03
23,CGAATTCACT,1.01
